Data: the supplement of paper PMC3334620
In all, about 33,000 sequences were measured (“E-score (-0.5 to 0.5)”: median about -0.054, highest 2% from about 0.39 on). The list shows a part of the results.

Each sequence was assayed against Ylr278c (UniProt Q05854) (assay: PBM E-score (8-mer binding enrichment) (E-score (-0.5 to 0.5)); higher = stronger / more preferred TF binding; most listed sequences are background and not binding sites). Settings: protein concentration: 200 nM; construct: GST-DNA-binding domain.
How it was run: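 Yeast transcription factors carrying a GST tag, as full-length proteins or DNA-binding domains, were produced by PURExpress in vitro transcription/translation. About 100-200 nM protein was applied to universal all-10-mer Agilent arrays, double-stranded by primer extension on fresh or once-stripped slides. Bound protein was detected with fluorescent anti-GST, and scans were normalised with masliner. The Universal PBM Analysis Suite gave each ungapped eight-base word, pooled with its reverse complement, an E-score, a modified Wilcoxon-Mann-Whitney statistic.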

Sequence | PBM E-score
ATATTGGA | 0.0229
AAGTGATC | -0.185
CTCGGTCA | 0.0207
GATTACGC | 0.0883
ACCCGGGG | 0.246
TAGTGGGA | -0.113
CCTACGCC | -0.0875
AGAGCGAG | -0.0316
ACACACCA | -0.0699
GTAGACGA | -0.255
ATCACGCC | 0.046
GACCAACA | -0.0396
ATAGAAGA | -0.101
GCATCATA | -0.0822
ACATAGGT | -0.244
TCATAGAA | -0.0632
GACGATAC | 0.0377
GAAAGTAC | -0.0189
AGAGCCCC | -0.11
ACACTTGA | -0.247
CCACATAC | -0.235
AACCACTA | -0.234
GCTTAACC | -0.157
GGACGGGA | 0.111
GAGTAAGA | 0.0177

Sequence | PBM E-score
ATCACGGC | 0.101
GTTCCTGA | -0.157
AGTGACGC | -0.0157
AATATGAT | 0.0638
CGCTTTTA | 0.129
ACGATCGA | -0.057
AGTGCAGC | -0.0398
CTAGAGGC | -0.217
CCGTCTCG | 0.205
GTGCCGGA | 0.438
AGATGCTA | -0.246
ACACGTGG | -0.0484
AAATGCAT | -0.0713
ATGACAGG | -0.154
CTGTCGGA | 0.404
GGCATAAC | -0.0552
AACATGGG | 0.0808
ACAAGTCA | -0.0817
TACAGTGA | -0.253
AGCAAGGC | -0.0887
CCAATCGC | -0.103
TCCAGCCA | -0.156
ACCCTTGG | -0.218
TGCAGGCA | -0.105
CGCATAAC | -0.0515

Sequence | PBM E-score
ATTACGTC | 0.00763
AACTTGCT | -0.0383
TATTCCGA | 0.453
ACCTGGAG | -0.128
TACTGCAA | -0.152
CGAAACAC | 0.102
GACTTCCC | 0.084
GCTCGACA | -0.357
CAGGCCTC | -0.224
CACGATTC | 0.0252
AACAAGGC | -0.26
CGCCAAAC | 0.0632
GAACCTAA | -0.00783
GGAGGGAA | 0.152
CAGACAGG | -0.188
GGCGATCA | -0.0139
CCTATACC | -0.0484
AGATTGGA | -0.117
GAAGATGC | -0.0458
AATACAAA | 0.172
ACGCGGTG | 0.131
CCGATATC | 0.349
AAGGGCTG | -0.213
AATTGCCA | -0.115
ATTGTCCG | 0.452

Sequence | PBM E-score
CCATAGCG | -0.0972
AACACCTC | -0.251
CGCATCGA | 0.00676
TATCACCA | -0.0632
AGCCAGCT | -0.102
GGTACAAA | -0.166
CTCGATGA | -0.12
CTCGCCCA | -0.205
TAAAGCAA | -0.0064
CATTGCAA | -0.12
AATGCCGT | 0.381
AGGACGAA | 0.168
CATGAGCC | -0.173
AATCACTA | -0.08
ATTGGGGA | -0.104
CGCAGTAG | 0.072
AGCCTTCA | -0.16
CTAGTGAC | -0.187
TGCAGCCA | -0.122
GTCAGAGA | -0.24
TTATGGAA | -0.0616
ATGCAAAC | -0.0897
ATTGACGA | -0.135
CAGCCTGA | -0.225
CCCATAAA | 0.0458

Sequence | PBM E-score
ACTTTTAC | 0.181
AGCACGGC | 0.182
ACAGGAGT | -0.0336
GAGTCCCC | -0.104
ATCCAATC | -0.0193
ACTTAGAA | -0.128
TACGCTGA | 0.0224
AGAAATAA | 0.0262
AATGGTGA | -0.157
GCCATAGA | -0.271
CGGCGAAA | 0.381
AATCTTAA | -0.301
CGGGCTGA | 0.111
AGACTTAA | -0.264
CGCCTGTA | 0.0202
ATCCGGAG | 0.486
AAACAATG | -0.226
AATAAATG | 0.0298
GTGGGCTA | -0.111
AGAAGTCG | -0.0267
CATGTCTA | -0.322
ACATGCAT | -0.148
CCCACCGG | 0.41
GTGGATGA | -0.244
CGTAGGAG | 0.0338

Sequence | PBM E-score
ACTGGTCC | 0.0527
CACGTCAG | -0.229
ATAACTAA | -0.132
ATGTTTAC | -0.0405
AAACCTTG | -0.277
TCCATCAA | 0.0618
GGAGGTGA | 0.201
GATGCTTA | -0.0379
AGTCAACC | -0.0996
GGCTGCAC | -0.0358
GGCATTAA | 0.0355
AAGTATCT | -0.129
GCGCAGAA | 0.036
CGCTCAAC | 0.0166
ACATTCGA | 0.0919
ATAATAAT | -0.0152
AGCAGGAT | -0.079
ACCCCCGC | 0.266
GAACAGAC | -0.0318
GTTGGGAA | -0.0423
GGGATATA | 0.151
AGCCGGGC | 0.167
GAGCAGGC | -0.156
AGCCCCGA | 0.258
ATCATAAG | -0.0257

Sequence | PBM E-score
TAGGCCAA | -0.0188
GTGGGTAA | -0.082
ACTGAAGT | -0.136
GACAGGCA | -0.147
ATTCGATC | 0.12
AAAGTATT | -0.0984
CGGTGTAA | 0.254
CACGCGCC | 0.172
GGTATAGA | -0.0727
CCTGGATC | -0.238
ATCTTCTC | 0.223
CTGCGCAG | -0.0934
CTCACGCA | -0.0469
CCATGCCC | 0.0194
ACTTGTTA | -0.0563
ACCCGCAA | -0.0209
CGAACCTA | 0.132
ATTATAAC | 0.0111
CTGGGCCA | -0.288
ATGCCAAC | -0.188
CAACGATA | -0.046
AAATCTAG | -0.178
GCGACTGA | -0.207
GTGTTAGA | -0.129
AGGAGTCG | -0.167

Sequence | PBM E-score
CAGCACAG | -0.164
AGATCCGC | 0.37
GCTGGCAA | 0.00941
ATTAGTGC | 0.131
TCAGGCGA | -0.171
CACAGCGG | 0.0351
AATAGGGA | 0.0154
GAACAATA | 0.0307
ATTCCGTG | 0.361
ACTATCTA | -0.0969
CAGAAGAG | -0.316
CCGTCGCG | 0.256
AAATTTGT | -0.026
AGGAAGAT | 0.0761
GAGAAGAC | 0.0429
GGTGTTTA | 0.198
CCGAGAGG | 0.0757
GTTCGGGA | 0.277
GAGCAAGA | 0.0283
CAGCCTCG | -0.251
CCTGCCCG | 0.0809
AGAATGTG | -0.285
GTGAGATA | 0.052
AGACTAAA | 0.0368
CACGCCAG | -0.159

Sequence | PBM E-score
ATCCGAGC | 0.266
CCACGAAG | -0.297
CTTTACCA | -0.185
CCGTGCCG | 0.199
CGTACAAA | -0.149
GAACCTGC | -0.0346
AAGCCGTC | 0.235
ACTGTCAT | -0.191
AGATTTAC | 0.0367
AAACAGGC | -0.103
GGAGAGAA | 0.148
AAGAACAA | 0.0618
ATGGTACC | -0.105
CTTCGATC | -0.0803
TGCACACA | -0.237
CACAACGG | 0.067
CATGGCCG | 0.224
ATGGAAGG | -0.213
GATCCGTA | 0.158
